Laboratory results as given in PubChem BioAssay AID504832 (National Center for Advancing Translational Sciences (NCATS), 2011).
Out of some 310,000 compounds screened, about 18,000 (5.8%) were called active. The shares of active, inactive and inconclusive entries below differ from those in the screen. The call rests on the fitted dose curve; in most records, active means well fitted inhibition curve with a large enough effect; inconclusive means small, poorly fitted or top-dose-only effect, or another doubt; inactive means no such curve, though single readings can be large or run the other way. No potency is given beside an inconclusive call; the fits are too rough.

Assay: Primary qHTS for delayed death inhibitors of the malarial parasite plastid, 48 hour incubation
Settings: P. falciparum luciferase growth in erythrocytes; series mostly up to 28.7 µM
Summary of the method: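 A one-generation exposure of luciferase-tagged malaria parasites in RPMI 1640/Albumax erythrocyte culture, 37 C and 5% CO2. Inhibition is inferred from decreased luminescence after adding detection reagent.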
Potency means the concentration at half of the fitted maximal effect; tags describe the fitted curve by direction and shape.

Row | Structure (SMILES) | Potency
1 | O=C(c1cc(-c2ccc(F)cc2)on1)N1CCCc2ccccc21 | inactive
2 | COc1ccc2c(c1OC)C(C1c3c(cc4c(c3OC)OCO4)CCN1C)OC2=O (stereo not drawn) | inconclusive [inhibitor, partial curve, poor fit]
3 | CC(=O)c1cccc(OCc2cc(C(=O)N(C)Cc3cnccn3)no2)c1 | inconclusive [inhibitor, single point]
4 | c1ccc(Nc2ccc(-n3ccnc3)nn2)cc1 | inconclusive [inhibitor, single point]
5 | CCOCCN1CCN(c2c(CC)c(C)nc3cc(-c4cc(OC)cc(OC)c4)nn23)CC1 | active: 1.47 µM
6 | COC(=O)[C@H](Cc1ccccc1)NC(=O)NCc1ccccc1OC | inactive
7 | COc1cc2nc(N(CCCN(C)C)C(=O)c3ccc(S(=O)(=O)N4CCc5ccccc54)cc3)sc2cc1OC | inconclusive [inhibitor, single point]
8 | CCOC(=O)c1cc(C(=O)NN)c(C)nc1C | inactive
9 | CCC(C(=O)NCCC(C)C)n1ccc2cc(S(=O)(=O)N3CCCCC3)ccc21 (stereo not drawn) | active: 11.7 µM
10 | CN(C)CCCNC(=O)c1ccc(Cl)c(S(=O)(=O)N2CCCCCC2)c1 | inconclusive [inhibitor, single point]
11 | O=C(NNC(=S)Nc1ccccc1)c1ccccc1[N+](=O)[O-] | inconclusive [inhibitor, single point]
12 | CC(C)c1ccc(C2(C)NC(=O)N(CC(=O)NC3CCCC(C)C3C)C2=O)cc1 (stereo not drawn) | inconclusive [inhibitor, single point]
13 | COc1cccc(N(C(=O)Cn2nnc(-c3ccc(F)cc3)n2)C(C(=O)NCC2CCCO2)c2ccc(Cl)cc2)c1 (stereo not drawn) | inconclusive [inhibitor, partial curve]
14 | C=C1CCN([C@H](C(=O)OCc2ccc(C)cc2)C(C)C)S(=O)(=O)c2ccccc21 | inconclusive [inhibitor, single point]
15 | Cc1cc(C)c2[nH]c(=O)c(C(c3nnnn3CC3CCCO3)N3CCC(C)CC3)cc2c1 (stereo not drawn) | inconclusive [inhibitor, single point]
16 | COc1ccc(C(CCN)Cc2ccccc2)cc1 (stereo not drawn) | inconclusive [inhibitor, partial curve, poor fit]
17 | CC(NC(=O)Nc1ccc(Br)cc1)C(C)(C)C (stereo not drawn) | inconclusive [inhibitor, partial curve, poor fit]
18 | Cc1cc(-c2cccc([N+](=O)[O-])c2)nc2ccccc12 | inactive
19 | COc1ccc(-c2csc(NC(=O)Cc3ccccc3)n2)cc1OC | inconclusive [inhibitor, partial curve, poor fit]
20 | Cc1cc([N+](=O)[O-])ccc1NCc1ccc2c(c1)OCCO2 | inconclusive [inhibitor, single point]
21 | COc1ccc(-c2nc3c(c(=O)[nH]c(=O)n3Cc3ccccc3)n2C)cc1 | inactive
22 | CCOc1ccc(S(=O)(=O)NCCC(=O)NCc2ccccn2)cc1 | inactive

Row | Structure (SMILES) | Potency
23 | COC(=O)c1ccc(CNC(=O)c2ccc3c(c2)NC(=O)CS3)cc1 | inconclusive [inhibitor, single point]
24 | Cc1ccc(NC(=O)c2sc3nc(C)nc(N4CCN(c5ccccn5)CC4)c3c2C)c(C)c1 | inconclusive [inhibitor, partial curve]
25 | COc1ccc(C(=O)NC2CCCCCC2)cc1S(=O)(=O)Nc1ccc(Br)cc1 | inconclusive [inhibitor, single point]
26 | C/C(=N/Nc1nc(C)cc(-c2ccccc2)n1)c1ccco1 | inactive
27 | Fc1cccc(NC(=S)NCCN2CCOCC2)c1 | inactive
28 | CC(C)(C)C(=O)NC1CC2CCCC(C1)N2C(=O)Nc1ccccc1Cl (stereo not drawn) | inconclusive [inhibitor, single point]
29 | COC(=O)CN(c1ccc(C)c(Cl)c1)S(C)(=O)=O | inconclusive [inhibitor, partial curve, poor fit]
30 | O=C(NCc1nc2ccccc2[nH]1)C1=C[C@@H](C2CCCCC2)C[C@@H](OCCCCO)O1 | inconclusive [inhibitor, partial curve, poor fit]
31 | COC(=O)C1CCCN1S(=O)(=O)c1ccc2ccccc2c1 (stereo not drawn) | active: 10.4 µM
32 | COc1cc2cc(CN(CCN3CCCC3)C(=O)Nc3ccccc3Cl)c(=O)[nH]c2cc1OC | inconclusive [inhibitor, partial curve, poor fit]
33 | O=C(N/N=C/c1ccccn1)c1cc(-c2ccccc2)nc2ccccc12 | inconclusive [inhibitor, single point]
34 | Cc1cccnc1N(C(=O)Nc1cccc(Cl)c1)C1=NCC(C)(C)S1 | inconclusive [inhibitor, single point]
35 | Cc1ccc(S(=O)(=O)N(C)c2ccc(OCC(=O)Nc3nc(-c4ccccc4)cs3)cc2)cc1 | inconclusive [inhibitor, full curve, poor fit]
36 | COc1ccc(CCNC(=O)CCc2cn(C)c3ccccc23)c(OC)c1 | inconclusive [inhibitor, single point]
37 | O=C(O)c1cc(C(=O)C2CC2)c[nH]1 | inconclusive [inhibitor, single point]
38 | C=CCc1cccc(CNc2c(C)n(C)n(-c3ccccc3)c2=O)c1O | active: 10.4 µM
39 | CCOc1cc(/C=C/C(=O)OCC(=O)NCc2ccco2)cc(Cl)c1OC | inconclusive [inhibitor, single point]
40 | CC(C)c1nnc(-c2ccc(Cl)cc2)c(N(C)C)n1 | inconclusive [inhibitor, partial curve]
41 | O=C1/C(=C/c2cccnc2)SC(=S)N1C1CCS(=O)(=O)C1 (stereo not drawn) | inconclusive [inhibitor, single point]
42 | O=C(C1CCCCC1)N1CCN(S(=O)(=O)c2cccc([N+](=O)[O-])c2)CC1 | inactive
43 | CC(=O)c1ccccc1-c1csc2ncnc(Sc3nnnn3C)c12 | active: 11.7 µM
